Laboratory results: PubChem BioAssay AID1508624 (National Center for Advancing Translational Sciences (NCATS), 2021)
Hit rate of the full screen: of about 48,000 compounds, about 120 (0.25%) were called active. Inconclusive results (about 4%) are left out. Calls follow the shape of the dose curve; as a rule, active = well fitted activation curve with a large enough effect; inconclusive = small, poorly fitted or top-dose-only effect, or another doubt; inactive = no such curve, though single readings can be large or run the other way. Some of the results follow.

experiment: Primary qHTS for Identification of Small Molecule Activators of Huntingtin-Antisense Promoter Activity; conditions: HEK293 HTT-AS promoter firefly luciferase reporter, 24 h; series mostly up to 57.5 µM; activity change, positive = activation: at the top concentration; also: nearly all actives have a fitted effect of over 55% in size
Procedure, shortened: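 HEK293 cells carrying firefly luciferase reporters were seeded at 2,500 per well in Opti-MEM and cultured for 24 h. They were then treated with compounds at up to 57.5 uM final for 24 h at 37 degrees C before Dual-Glo luminescence readout.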

Activity change, positive = activation, inactive:
CCN(CC)CCN(C(=O)c1ccc(C(=O)OC)cc1)c1nc2ccc(Cl)cc2s1 5.63%
CCCC(=O)Nc1ccc(NC(=O)c2sc3ccccc3c2Cl)cc1 -35.3%
COCCn1c(SCC(=O)c2ccccc2)nc2cc(C(=O)NC3CCCC3)ccc2c1=O -2.82%
COc1ccc(NC(=O)CN(c2cccc(C)c2C)S(=O)(=O)c2ccccc2)cc1OC -22.7%
CCOC(=O)CSC1=Nc2ccccc2C2=NC(CCC(=O)NCc3ccccc3)C(=O)N12 (stereo not given) 17.2%
COc1ccc(C(=O)N2CCN(C(=O)COc3ccc(Br)cc3)CC2)cc1OC -10.1%
Cc1cc2c(cc1C)C(c1cccc(OC(C)C)c1)CC(=O)N2 (stereo not given) -33.4%
CCCCN(C)CCCNC(=O)Cn1nc(CC)n2c(cc3sc(C)cc32)c1=O 0.345%
Cc1cccc(-c2noc(-c3ccc(NC4CCCC4)c([N+](=O)[O-])c3)n2)c1 1.09%
Cc1ccc(OCC(=O)Nc2cccc(C(=O)OCc3cc(=O)n4cc(C)sc4n3)c2)cc1 -12.3%
O=C(CC1N=C2c3ccccc3N=C(SCc3cccc(Cl)c3)N2C1=O)NC1CCCCC1 (stereo not given) 12.1%
COc1cc(OC)c(NC(=O)c2nc(-c3ccncc3)no2)cc1Cl 2.33%
COc1ccc(NC(=O)CSc2nnc(-c3nnn(-c4ccc(F)cc4)c3C)o2)cc1 5.29%
CCCCCNC(=O)C1CCC(Cn2c(=O)c3sccc3n(CC(=O)N3CCCC3)c2=O)CC1 (stereo not given) -6.29%
CCOCN(C(=O)Cn1c(C)nc2ccccc21)c1c(C)cccc1CC 2.96%
Cc1ccc(Cl)cc1-n1c(=O)cc(N2CCN(c3ccccc3)CC2)[nH]c1=O -15.1%
Cc1cc2n(n1)CCCN2C(=O)Nc1ccccc1F -6.03%
COc1cccc(C(=O)N2CCC(c3nc4ccccc4s3)CC2)c1 -13.7%
COCCNc1cc(N2CCN(C3CCCCC3)CC2)c2noc3c2c1C(=O)c1ccccc1-3 -10.2%
CCOc1ccccc1NC(=O)c1ccc2c(c1)CCCN2S(C)(=O)=O 27.9%
Cc1ccc(C(=O)Nc2nnc(SCc3cc(=O)c4c(C)ccc(C)c4[nH]3)s2)cc1 -27.1%
O=C(C1COc2ccccc2O1)N(Cc1cccnc1)c1nc2c(F)cc(F)cc2s1 (stereo not given) 11.4%
O=C(Nc1ccc2nn(-c3ccc(F)cc3)nc2c1)c1cccc2c(Cl)cccc12 -3.29%
Cc1ccc(Cl)cc1N1CCN(C(=O)c2c(C)oc3ncnc(N4CCOCC4)c23)CC1 -20%
COC(=O)c1cccc(Nc2c(-c3cc(Br)ccc3O)nc3nc[nH]n23)c1 -8.74%
Cc1cc(C)cc(OCC(=O)Nc2ccc(-c3nc4ncccc4o3)cc2C)c1 -5.44%
CCc1nnc(SCc2nc(-c3ccccc3F)oc2C)c2cc3sccc3n12 -11.5%
CCOc1ccccc1NC(=O)c1c(NCc2ccc(OC)c(OC)c2OC)sc2c1CCC(C)C2 (stereo not given) -34.6%
CCOc1ccc(NC(=O)C2CCCN(c3nnc(-n4c(C)ccc4C)s3)C2)cc1 (stereo not given) 5.35%
CCc1ccc(NCc2cc3ccc(OC)cc3n(CC(=O)Nc3cccc(Cl)c3C)c2=O)cc1 3.98%
COCCN1C(=O)c2[nH]nc(-c3c(C)cc(C)cc3O)c2C1c1cccc(O)c1 (stereo not given) -40.5%
CC(=O)c1ccc(NC(=O)C2CCC(CNS(=O)(=O)c3cccc4nsnc34)CC2)cc1 (stereo not given) 4.33% [at 11.5 µM, percent change from vehicle, -100% = no light]
CCc1ccccc1N1C(=O)N(Cc2cccc(Cl)c2)c2ccccc2S1(=O)=O -39.8%
CC(C)(C)OC(=O)N1CCC(c2c(C(=O)N3CCN(C(=O)c4ccco4)CC3)cnn2-c2ccc(Cl)cc2)CC1 -5.21%
Cc1ccc(C(=O)NCc2nnnn2-c2ccc(C)c(C)c2)cc1 -18.7%
Cc1ccc(-c2nnc(Nc3ccc(Br)cc3)c3ccccc23)cc1S(=O)(=O)NCc1nc2ccccc2[nH]1 -31.5%
CCc1ccccc1NC(=O)CC(C)n1nc(C)cc1C (stereo not given) -0.116%
CCCCCC[C@@H](CCC)C(=O)O -19.4%
Cc1ccc(N2C(=O)c3n[nH]c(C)c3C2c2ccc(C(C)C)cc2)cc1 (stereo not given) 0.257%
CCOC(=O)c1c(S(=O)(=O)N2CCN(c3ccccc3OC)CC2)c(C)n(C)c1C -7.64%
COc1cc(OC)c(NC(=O)NCc2ccc3c(c2)CCN3C(C)=O)cc1Cl -18.2%
COc1cc2c(cc1OC)C(=O)C(CC1CCN(Cc3ccccc3)CC1)C2 (stereo not given) -17.8%
CCCCC(CC)CN1CN(CC(CC)CCCC)CC(C)(N)C1 (stereo not given) -13.7%
O=c1c2cc3c(cc2n(Cc2cccc(F)c2)c(=O)n1Cc1nc(-c2ccccc2)no1)OCO3 -14.7%
Cc1nc2sc(C(=O)Nc3ccc(F)cc3)c(N)c2c(-c2ccc(Br)cc2)c1C(=O)Nc1ccc(Cl)cc1 11.3%
CCc1cccc(NC(=O)c2cnc(SC)nc2-c2ccccc2)c1 -21%
CCOc1ccc(/C=C/c2nc(C#N)c(NC(C)CC)o2)cc1 (stereo not given) -20%
Cc1cc2nc(-c3ccc(OCc4ccc(F)cc4)cc3)cc(C(F)(F)F)n2n1 -5.94%
Cc1ccc(C)c(Cn2c(=O)n(Cc3ccc4c(c3)OCO4)c(=O)c3oc4ccccc4c32)c1 -17.1%
CCCCOc1ccc(C(=O)NCCc2sc(-c3cccc(F)c3)nc2C)cc1 -29.6%
O=C(Nc1ccc(NC(=O)c2cccs2)cc1)c1cccc(Br)c1 3.01%
COc1ccc(-c2cn3nc(N4CCC(C(=O)Nc5cccc(OC)c5)CC4)sc3n2)cc1 0.462%
CCOc1ccc(Sc2cc(C(=O)NC(C)CC)c3ccccc3n2)cc1 (stereo not given) -23.2%
COc1ccc(N2CCN(S(=O)(=O)c3ccc(OC)c(-c4noc(C)n4)c3)CC2)cc1 -4.83%
O=C(Cn1ncc2c3ccccc3n(Cc3ccc(Cl)cc3)c2c1=O)NCc1cccs1 -7.42%
CCCCCCn1c(=O)c2c(ncn2C)n(C)c1=O -0.0086%
Cc1cccc(NC(=O)c2sc3nc4c(cc3c2N)CN(Cc2ccccc2)CC4)c1 0.938%
CCOc1ccccc1NC(=O)C(C)Sc1nc(-c2ccccc2)c(C#N)c(=O)[nH]1 (stereo not given) -17.8%
COc1ccc(C2C(=O)N(C3CCCCC3)CC(=O)N2CCc2ccc(OC)c(OC)c2)cc1 (stereo not given) -4.98%
Cc1ccc(C)c(CN2C(=O)C3(c4ccccc42)N(c2cccc(C(F)(F)F)c2)C(=O)CS3(=O)=O)c1 (stereo not given) -23.4%
